Source: paper PMC5892938
The list shows a part of the results. The exact form of the protein is not confirmed.

Each sequence was assayed against GST-SBP-ILF3 (Homo sapiens) (UniProt Q12906) (assay: targeted RNA Bind-n-Seq). Details: RBNS binding buffer: 25 mM Tris pH 7.5, 150 mM KCl, 3 mM MgCl2, 0.1% Tween, 0.5 mg/mL BSA, 1 mM DTT; 27 nM protein, 750 pM RNA pool; temperature not stated; high values mean tight binding; sequences stand for … in GGGUAAAAGCGAGGUGAA…CGGGACAAGUAUUAUGGG.

Sequence | binding signal (log2 fold change)
UUUUUUUUUUGAGAGGGGAUCCCUCUCCUG [tttttgagapaired] | 0.439
UUUUUUUUUUGAGAUGGUGUCCAUUUCCAG [tttttgagapaired] | 0.857
UUUUUUUUUUGAGACUGGAUCAGUUUCCUA [tttttgagapaired] | 0.351
GUGUGGUGUGUUGGCGCCUAACACACUACG [gtspaired] | -0.692
GGUUGGUGUGUUGGUCCCUAACACACUAAC [gtspaired] | -0.673
UUUUUUUUUUGAGAGGGUAUCCUUCUCCGG [tttttgagapaired] | 0.169
GUUGGUGGUGUUGGUACCUAACACCGCCAG [gtspaired] | -0.333
UUUUUUUUUUGAGAGCGGGGCGUUCUCCUA [tttttgagapaired] | 0.563
UUCUUCUCUCCUCCGUGGGAGGGGGGAAGA [ctspaired] | -0.0804
UUUUUUUUUUGAGAGCGACACGCUCUUCUG [tttttgagapaired] | 0.381
UUUUUUUUUUGAGAGGGGAGCCCUUUCCAG [tttttgagapaired] | 0.448
UUCUCUCUUCCUCCAUGGGAGGGAGGGAGA [ctspaired] | -1
GGUGGUUGUGUUGGAUUCUAACACAGCUAC [gtspaired] | -0.662
UUUUUUUUUUGAGAGGGGAACCCUCUCCGG [tttttgagapaired] | 0.252
UUUUUUUUUUGAGACCGUGGCGGUCUCCUG [tttttgagapaired] | 0.72
GUGGUUGGUGUUGGCAUCUAACACCAGCCA [gtspaired] | -0.612
UUUUUUUUUUGAGAACGAUACGUUCUCCAG [tttttgagapaired] | 0.042
GGUGUGUGUGUUGGUCCCUAACACACGCAC [gtspaired] | -0.374
UUUUUUUUUUGAGACGGCAGCCGUUUCCAG [tttttgagapaired] | 0.574
UUUUUUUUUUGAGACUGGUACAGUCUUCUA [tttttgagapaired] | 0.228
GUGUGGUGUGUUGGCAUCUAACACACCGCA [gtspaired] | -1.07
UUUUUUUUUUGAGAUGGUUUCCGUCUUCUA [tttttgagapaired] | 0.514
UUUUUUUUUUGAGACUGGGGCAGUCUCCAG [tttttgagapaired] | 0.675
UUUUUUUUUUGAGACUGGCGCAGUCUCCUG [tttttgagapaired] | 0.626
UUUUUUUUUUGAGACCGCAUCGGUCUCCUA [tttttgagapaired] | 0.295
UUUUUUUUUUGAGACUGAUGCAGUCUCCGG [tttttgagapaired] | 0.514
UUUUUUUUUUGAGAACGGGUCGUUCUCCUA [tttttgagapaired] | 0.12
UUUUUUUUUUGAGAACGAAACGUUCUCCAG [tttttgagapaired] | -0.0339
